Test results as given in the RNAGym collection of RNA variant scans (doi:10.1073/pnas.2313332121).
Variants at the floor of the assay are shown more often than the library holds them.

B1: TPR 5TU (parent)
chain: GGAUCUUCUCGAUCUAACAAAAAAGACAAAUCUGCCACAAAGCUUGAGAGCAUCUUCGGAUGCAGAGGCGGCAGCCUUCGGUGGCGCGAUAGCGCCAACGUUCUCAACUAUGACACGCAAAACGCGUGCUCCGUUGAAUGGAGUUUAUCAUG

Variants of: B1
Assay: polymerase ribozyme fitness, log enrichment relative to wild type (log ratio); higher = more active; in vitro selection for triplet polymerase activity
How it was run: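 In triplicate, a single round of in vitro selection was run on each mutant library, PCR-built and transcribed, covering one subunit of a heterodimeric triplet polymerase ribozyme. Frozen incubation at −7 °C followed annealing with a biotinylated primer, partner subunit and triplets, and extended constructs were then gel-excised, streptavidin-captured and taken through RT-PCR. Fitness is the logarithm of genotype enrichment over wild-type enrichment, from inverse-variance-weighted replicate averages of Illumina-sequenced inputs and outputs. […] only genotypes with ≥10 input reads and ≥1 read per output were kept.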

Polymerase ribozyme fitness (log ratio), -3.88:
G62U G94U C96U

Polymerase ribozyme fitness (log ratio), -3.55:
U61A C129U

Polymerase ribozyme fitness (log ratio), -1.46:
C63A A64C

Polymerase ribozyme fitness (log ratio), -1.65:
C63U U148C

Polymerase ribozyme fitness (log ratio), -2.82:
G62A C69U

Polymerase ribozyme fitness (log ratio), -0.941:
U61A A89U

Polymerase ribozyme fitness (log ratio), -3.91:
U61A A73C

Polymerase ribozyme fitness (log ratio), -3.74:
G62A C69U G92C

Polymerase ribozyme fitness (log ratio), -2.71:
U61A G94U A106G

Polymerase ribozyme fitness (log ratio), ≤ -4.2:
A60U C99U A106C A107G U139A A150G
A60U G65U G140A
A60U G68A A147C
A60U G68C G84U C99A U145A
A60U G88U A89U C96U U102G C132U
A60U G94A U135G U139C
A60U G133C C149G
A60U U61A C69G C96U
A60U U77A
A60U U78C C87U A98C U104C C114G A115G U139G
A60U U130G G143C
U61A A64G G140C U144C
U61A A73U A138U
U61A A73U U77G G88C A119U A137G U144A
U61A A89C U102G U104C
U61A A91U
U61A C75U C87G
U61A C76A G83C C118A
U61A C79G
U61A C79G U82C C132G
U61A C93G C96U G124U A138C
U61A C149G
U61A G62A U90G C95G C105A C114G U144C G152C
U61A G67A A106G
U61A G67A C87U A107U
U61A G74U U139A
U61A G80A G86U G112C G124A A137G
U61A G83U C93A U144G
U61A G84A U109G
U61A G88A
U61A G88U
U61A G94C C99G U102G A115U
U61A U77G G84U C149A
U61A U82G G133U U148A
U61A U134G G143U
U61C C99A G128A
U61C C125U C129G
U61C G67U U77G
U61C G86C U135A
U61G C63G G74U A91G C118A
U61G C75A C87G A113U A119C C149U
U61G C75G G88U A89U U101A G140C
U61G C75U C114U A119U G143U
U61G C76G C123U
U61G C95U G100A A150U
U61G G62C C76A C87G G140C
U61G G67U U90A A120G
U61G G68A
U61G G70A C85G C96U
U61G G74U G83A
U61G G80A C93G
U61G G83U G86A C149U
U61G U148A
G62A A91G C99A U127G
G62A C85G C131G
G62A G117A U134C A150G
G62A U82C C95A U101C U148A
G62C A113U G117A A137C
G62C C72U C93A
G62C C76U G84A A120U G140C
G62C C85A C87G G117A
G62C C114G A119C C125G
G62U C72G C93A
G62U G67U G71C A98G C99G C105U
G62U G68C U90C
C63A C75U C85G U101G G140U U146C
C63A C87A A91G
C63A G67C C75U C85A
C63A U109C
C63G A66G G71A G74U U135G G143C
C63G A91C C93G U134C
C63G C72A U90C
C63G C75G G133A
C63G C87A A107U A142C G143A
C63G G65C
C63G G65C C93G A137C A142U
C63G G88A
C63U A66C C93A G94A C108G G117U
C63U A66C U90G G141U
C63U A73U U109C A122G A142G
C63U A115G A150C
C63U C87G C93U U144C
C63U G68A C85U C114U G124A
C63U G71A C85G G100U
C63U G81A A91U C99U G100A
C63U G81C U104G C105G
C63U U90G C95G A121U G126A
A64C A66C C69A C85U U127A G128U
A64C C69G C103G U139G
A64C C69U G84A G136U G141U
A64C C85G A137U
A64C C96U C103G U109A U135G G136U
A64C G65A G84U C116G U139C
A64C G70A C75G C131U
A64C G71A A107G G141C
A64C G81A G84A
A64G A91C U146G
A64G A91G
A64G A91G C123G
A64G A91U
A64G A137G
A64G C75G G80C G81U C95U A98U C108U
A64G C85U C87G C125A
A64G G67C G84U G124U U148C
A64G G67U G84U C103A G112C A115U U146C
A64G G68A G92U C93G G140A U144A
A64G G68U C76U A91U G92A A150U
A64G G70A C85U
A64G G71C G141A
A64G G81A G84A G86A
A64G G83U C118A A138G
A64U A66C C75G G88A
A64U A110G
A64U C79A C93U C99A
A64U C87U A98G
A64U C96U C105G A107U C125U G133A G140U G152C
A64U G67C A73G A122U
A64U G88C A142G
A64U G92A G117C U145A
A64U G94U C149U
A64U U77A G83A C114G A120G
A64U U82A U90C
A64U U90C G94U A107C C125A
G65A C69A A107U
G65A C85G A150C
G65A C108G C125U
G65A G67U U82G A98G
G65A G70U C93U U146G
G65A G71A G92U A98U A121U U134G
G65A G84A U101C A113C A150C
G65A U77A U90C C103A
G65A U78A A120U
G65A U148G
G65C C79A C96A
G65C C85U C116G
G65C C87A U104G A138U
G65C C132G

Polymerase ribozyme fitness (log ratio), -2.81:
A60U C131A

Polymerase ribozyme fitness (log ratio), -0.719:
A60U C132U

Polymerase ribozyme fitness (log ratio), -3.02:
G62A C85A A121U U134C A137G

Polymerase ribozyme fitness (log ratio), -2.59:
U61C C76A

Polymerase ribozyme fitness (log ratio), -1.77:
G62C C63A C116G

Polymerase ribozyme fitness (log ratio), -2.99:
C63U G86A

Polymerase ribozyme fitness (log ratio), -1.38:
U61A G84A

Polymerase ribozyme fitness (log ratio), -2.54:
U61A C96A G126A C131U

Polymerase ribozyme fitness (log ratio), -0.916:
U61A C95U

Polymerase ribozyme fitness (log ratio), -2.2:
U61A C96G G117A

Polymerase ribozyme fitness (log ratio), -3.08:
A60U U127G

Polymerase ribozyme fitness (log ratio), -1.42:
G62U G124C

Polymerase ribozyme fitness (log ratio), -2.6:
U61A C96G

Polymerase ribozyme fitness (log ratio), -3.59:
G62C C95U C96A

Polymerase ribozyme fitness (log ratio), -3.75:
G65A A97G C99G

Polymerase ribozyme fitness (log ratio), -2.74:
U61C C96A A121G

Polymerase ribozyme fitness (log ratio), -3.41:
U61A G92U

Polymerase ribozyme fitness (log ratio), -3.49:
A60U U61A A142C

Polymerase ribozyme fitness (log ratio), -2.57:
C63G A91G

Polymerase ribozyme fitness (log ratio), -1.28:
U61A C85U

Polymerase ribozyme fitness (log ratio), -3.95:
G62A G140A
